In PubChem BioAssay AID463173 (ICCB-Longwood Screening Facility, Harvard Medical School, 2010) one finds survival data, which are given here for 91 compounds.

In all, about 52,000 compounds went through this assay and about 4,300 (8.3%) were called active. Cut-off read from the data, not from the text of the source: active = survival mostly below about 52% (no sharp cut-off); inactive = mostly above about 56%. The list shows a part of the results.

For this assay, the system named is DeltatarO mutant. Description: S. aureus survival, RN4220 and DeltatarO strains – OD600, teichoic acid synthesis inhibitors, primary screen (AID 463173). To be noted: S. aureus RN4220 wild type/DeltatarO growth, OD600, 18 h, hits give low values, screened at 18.75 µg/mL (by protocol).
Turning to `CCN(CC)C(=O)c1ccccc1NC(=O)c1cccc(S(=O)(=O)N2CCC(C)CC2)c1`, the survival is inactive: 88%.

In the case of `CCOc1ccc(CCNC(=O)c2nn(-c3ccc(OC)cc3)c(=O)c3c2c2ccccc2n3C)cc1OCC`, the survival is inactive: 97%.

As to `O=C(O)CCc1ccc(-c2ccc(Cl)cc2)n1-c1cccc(C(F)(F)F)c1`, the survival was active: 23%.

With `CCOC(=O)c1cnc(NCc2ccc(Cl)cc2)c2ccccc12`, the survival was inactive: 91%.

As to `Cc1ccc2[nH]c3c(=O)n(CC(=O)N(C)Cc4ccccc4)ncc3c2c1`, the survival is active: -1%.

Consider `O=C(Cc1ccc(F)cc1)NCCc1csc(-c2ccc(C(F)(F)F)cc2)n1`, for which the survival was inactive: 92%.

As for `Cn1c(CN2CCCCC2)nc2cc(NC(=O)c3ccc(Cl)cc3)ccc21`, the survival was inactive: 135%.

As to `COc1cccc(CNC(=O)c2ccc(CS(=O)Cc3ccc(Cl)cc3)o2)c1` (stereo unspecified), the survival was inactive: 69%.

Consider `N#Cc1cc2c(=O)n3ccccc3nc2n(-c2nnc(SCc3ccccc3)s2)c1=O`, for which the survival was inactive: 96%.

With `Cc1ccc(C(=O)CSc2nnc3ccc4ccccc4n23)cc1`, the survival was inactive: 60%.

Regarding `CCC(C)(C)NC(=O)c1ccc2c(c1)N(CC#N)C(=O)C(C)(C)O2`, the survival was inactive: 94%.

In the case of `Cn1nnc2cc(C(=O)N3CCSCC3)ccc21`, the survival is inactive: 84%.

For `Cc1ccc(NC(CNS(=O)(=O)c2ccc(Cl)cc2)c2ccccc2)cc1` (stereo unspecified), the survival was inactive: 74%.

Regarding `Cc1ccc(CNC(=O)C2CCN(c3ncnc4c3nc3n4CCCCC3)CC2)cc1`, the survival is inactive: 77%.

Turning to `CCC(=O)N1c2ccc(S(=O)(=O)N3CCN(c4ccccc4Cl)CC3)cc2CC1C` (stereo unspecified), the survival is inactive: 79%.

Consider `Cc1nn(C)c(C)c1NC(=O)CSc1nccc(-c2ccc(Cl)cc2)n1`, for which the survival was inactive: 91%.

Turning to `Cc1cccc(N(C)c2nc3ccc(C)cc3n3nnnc23)c1`, the survival is inactive: 68%.

`CCOC(=O)C1CCCN(S(=O)(=O)c2cc(-c3cc(C)no3)ccc2C)C1` (stereo unspecified): the survival was inactive: 76%.

Regarding `S=c1nc(C2CC2)[nH]c2ccccc12`, the survival is inactive: 72%.

For the compound `O=C(CSc1nc2ccccc2s1)N=Nc1c(O)n(CN2CCCC2)c2ccccc12`, the survival is inactive: 75%.

For `O=C(NC1CCCCC1)/C(=C/c1ccc(Cl)cc1)NC(=O)c1ccccc1`, the survival was inactive: 76%.

Turning to `CCN1CCOC(=O)C1CC(=O)Nc1cc(Cl)ccc1OC` (stereo unspecified), the survival is inactive: 50%.

On to `CCOC(=O)c1c(NC(=O)/C=C/c2ccc(OCC)cc2)sc2c1CCC2`, for which the survival is inactive: 145%.

Turning to `CCCCn1c(=O)c2oc3ccccc3c2n(CC(=O)Nc2ccccc2OC)c1=O`, the survival was inactive: 97%.

For `Cc1ccc(CNC(=O)Cn2cc(C(=O)c3ccc(Cl)cc3)c(=O)c3ccc(C)nc32)cc1`, the survival was inactive: 84%.

`Cc1cccc(C)c1Nc1c(-c2ccccc2O)nc2ncccn12`: the survival is inactive: 82%.

With `Cc1ccccc1CNC(=O)c1ccc2c(c1)N(Cc1ccccc1)CCS2`, the survival was inactive: 79%.

As to `CC(=O)N(Cc1cc2cc(C)ccc2nc1Cl)C1CCCC1`, the survival was inactive: 64%.

Regarding `O=C(CCCn1c(=O)c2cccn2c2cccnc21)Nc1ccccc1Br`, the survival was inactive: 98%.

Consider `O=c1oc2ccc3ccccc3c2cc1-c1nnc(Nc2cccc(F)c2)s1`, for which the survival was inactive: 83%.

With `Cc1cnc(C(=O)Nc2ccc(C(=O)N(C)C3CCCCC3)cc2)cn1`, the survival is inactive: 111%.

On to `O=C(OCC1CCCO1)c1ccc2c(c1)N(Cc1ccccc1F)C(=O)c1ccccc1S2(=O)=O` (stereo unspecified), for which the survival was inactive: 98%.

On to `CCOc1ccccc1NC(=O)CSc1nccn1Cc1ccc(F)cc1`, for which the survival was inactive: 70%.

For `Cc1ccc(-n2c(=O)c3ccc(C(=O)NCc4ccccc4Cl)cc3n(CC(N)=O)c2=O)cc1`, the survival is inactive: 74%.

Take `CCOc1nc(Nc2ccc(OC)cc2)nc(N2CCOCC2)n1`: the survival is active: 70%.

As to `Cc1ccccc1C(=O)Nc1ccc(C(=O)OCc2cc(=O)n3c4c(sc3n2)CCCC4)cc1`, the survival was inactive: 118%.

`Cc1cccc(CNC(=O)c2cnc3sc(N4CCOCC4)nn3c2=O)c1`: the survival was inactive: 105%.

As to `O=C1/C(=C/c2ccccc2O)CC/C1=C\c1ccccc1O`, the survival was active: 55%.

For `CCc1ccc(C2=C(C)C(N3CCC(C(=O)NCc4ccc(C)o4)CC3)=NS2(=O)=O)cc1`, the survival was inactive: 88%.

`Cc1ccc(S(=O)(=O)N2CCCc3cc(NC(=O)c4c(F)cccc4F)ccc32)cc1`: the survival is inactive: 73%.

`Cc1nn(CC(=O)NCc2ccccc2Br)c(=O)c2cc3occc3n12`: the survival is inactive: 132%.

For `O=C(CCn1c(=O)c2cccn2c2cccnc21)N1CCN(c2ccc(Cl)cc2)CC1`, the survival is inactive: 53%.

On to `Cc1cccc(OCCCCn2c(C3CC(=O)N(c4ccc(C)cc4C)C3)nc3ccccc32)c1` (stereo unspecified), for which the survival was inactive: 47%.

In the case of `Cc1ccc(Cl)cc1-n1ncc2c(N3CCC(C(N)=O)CC3)ncnc21`, the survival was inactive: 88%.

Consider `CNc1oc(/C=C/c2cc(OC)c(OC)c(OC)c2)nc1C#N`, for which the survival was inactive: 69%.

Take `CS(=O)(=O)N1CCC(N2CCN(Cc3ccc(F)cc3)C(=O)C2=O)CC1`: the survival was inactive: 76%.

On to `CCOc1ccccc1C(=O)NCC(c1ccc(N(C)C)cc1)N1CCCC1` (stereo unspecified), for which the survival was inactive: 85%.

Regarding `CC1(C)CC(C(CC(=O)O)Cc2ccccc2)CCO1` (stereo unspecified), the survival was inactive: 88%.

As for `CSc1ccc(CCNC(=O)c2ccc3c(c2)c(C)c(C)n3Cc2ccc(F)cc2)cc1`, the survival was inactive: 75%.

For the compound `CNC(=S)N(Cc1ccco1)Cc1cc2ccc(C)cc2[nH]c1=O`, the survival was inactive: 99%.

`CCn1c(CN2CCN(C)CC2)nc2cc(NC(=O)c3cc(OC)c(OC)c(OC)c3)ccc21`: the survival was inactive: 96%.

In the case of `O=C(NCc1ccccn1)c1nn(-c2ccccc2Cl)nc1CO`, the survival is inactive: 91%.

For the compound `Cc1ccccc1NC(=O)c1ccc(CNS(=O)(=O)c2ccc3c(c2)C(C)(C)C(=O)N3C)cc1`, the survival was inactive: 76%.

In the case of `COc1ccccc1CNC(=O)C(Cc1ccccc1)NS(=O)(=O)c1ccc2c(c1)CCN2C(C)=O` (stereo unspecified), the survival is inactive: 61%.

Regarding `Cc1cc(NC(=O)CSc2ncc(C(=O)Nc3ccccc3)c(=O)n2C)no1`, the survival is inactive: 67%.

In the case of `CCN(CC)C(=O)C1=C(C)Nc2nc3ccccc3n2C1c1ccc(Cl)cc1` (stereo unspecified), the survival was inactive: 74%.

On to `CSc1ncc(C(=O)Nc2cccc(Cl)c2C)c(-c2ccccc2)n1`, for which the survival is inactive: 131%.

In the case of `CCNC(=O)CC1C(=O)N(c2ccc(F)cc2)C(=O)N1Cc1ccc(C)cc1` (stereo unspecified), the survival was inactive: 103%.

Regarding `O=C(Nc1nnc(C2CCCC2)s1)C1CC1`, the survival was inactive: 111%.

In the case of `Cc1ccc(Cl)cc1N(C)C(=O)c1cc2ccc3cccnc3c2[nH]1`, the survival is inactive: 83%.

`CCCCOc1ccc(C(=O)NCCc2csc3nc(-c4ccccc4F)nn23)cc1`: the survival was inactive: 84%.

On to `O=C(Nc1ccc2nsnc2c1)C1CC1`, for which the survival was inactive: 89%.

Turning to `COC(=O)c1ccc(NC(=O)c2c(NCc3ccc(OC)c(OC)c3)sc3c2CCCC3)cc1`, the survival is inactive: 67%.

On to `COC(=O)c1ccccc1NC(=O)CCCS(=O)(=O)c1nc(-c2ccccc2OC)cc(C(F)(F)F)n1`, for which the survival was inactive: 87%.

Turning to `CCOc1ccccc1CNC(=O)CN1C(=O)C2CCCCN2c2ccc(C(=O)N(C)C)cc21` (stereo unspecified), the survival is inactive: 120%.

As to `Cc1cc2ncn(C(=O)N3CCCCC3)c2cc1C`, the survival is inactive: 101%.

For `CC(=O)c1cccc(NC(=O)c2cc(-c3ccc4c(c3)OCCO4)on2)c1`, the survival was active: 45%.

Regarding `CCOC(=O)CNC(=O)Cn1nc(N2CCN(c3ccccc3)CC2)ccc1=O`, the survival is inactive: 71%.

Consider `N#Cc1c(N)nc(SCC(=O)c2ccc(Cl)cc2)c(C#N)c1-c1ccco1`, for which the survival was inactive: 76%.

Turning to `COCCn1c(CNC(=O)c2cc(OC)c(OC)c(OC)c2)nc2cccnc21`, the survival is inactive: 75%.

For the compound `CCN(CC)C(=O)C1CCCN(c2ncnc3c2nc2n3CCCCC2)C1` (stereo unspecified), the survival is inactive: 75%.

For the compound `COc1ccc(CCCc2nnc(SCC(=O)Nc3ccc(Cl)cc3)o2)cc1`, the survival is inactive: 92%.

In the case of `CCOc1ccc(OCC)c(NC(=O)c2c(C)nn(-c3ccccc3)c2-n2cccc2)c1`, the survival was inactive: 56%.

Take `Cc1nn(C)c2c1c(C(F)(F)F)cc(=O)n2CC(=O)NC(C)(C)C`: the survival was inactive: 74%.

For `CCc1ccccc1NC(=O)c1ccc2[nH]c(C)c(C)c2c1`, the survival was inactive: 116%.

Take `Cc1oc2ncnc(N3CCCCC3)c2c1C(=O)Nc1cccc(F)c1`: the survival was inactive: 126%.

In the case of `COc1ccc(-c2cc(-c3ccc(F)cc3)nc3c2COc2ccccc2-3)cc1`, the survival is inactive: 82%.

With `CCc1ccc(CNC(=O)c2sc3ncnc(N(C)C4CCCCC4)c3c2C)cc1`, the survival was inactive: 107%.

For `Cc1ccc(C)c2[nH]c(=O)c(CN(CCCN3CCCC3=O)S(=O)(=O)c3ccc(F)cc3)cc12`, the survival is inactive: 68%.

For `CCOc1ccc(-c2nnc(SCC(=O)NCCc3ccccc3)nc2-c2ccc(OCC)c(OC)c2)cc1OC`, the survival is inactive: 112%.

Consider `CCCN(C(=O)Cn1nc(Cc2ccncc2)c2ccccc2c1=O)c1ccccc1C`, for which the survival is inactive: 87%.

As to `COc1ccc(Br)cc1CNC(=O)c1ccc(-n2c(C)cc3c2CCC(C)C3)cc1` (stereo unspecified), the survival was inactive: 116%.

`Cc1cc(O)c(CN2CCN(c3ccc(F)cc3)CC2)c2oc(=O)cc(C)c12`: the survival is inactive: 46%.

For the compound `Cc1cccc(C(=O)Nc2nnc(S(=O)(=O)N3c4ccccc4CC3C)s2)c1` (stereo unspecified), the survival was active: 16%.

`COCCCn1c(=N)c(C(=O)NC2CCCC2)cc2c(=O)n3cc(C)ccc3nc21`: the survival was inactive: 57%.

Consider `CCOc1ccccc1C1Nc2ccccc2-c2nnc(SCc3ccccc3)nc2O1` (stereo unspecified), for which the survival is active: 44%.

For `Cc1c(C(=O)NCc2ccccc2)oc2c1-c1[nH]ncc1CC2`, the survival was inactive: 64%.

Regarding `Cc1ccc(C)c(N2CCN(C(=O)c3cc4c(=O)n(Cc5cccs5)ccc4nc3C)CC2)c1`, the survival is inactive: 99%.

With `Cc1ccc(S(=O)(=O)Nc2cc3c(cc2Cl)n(C)c(=O)c(=O)n3C)cc1`, the survival is inactive: 83%.

On to `CCOc1ccc2nc(N3CCC(C(=O)Nc4c(C)cccc4C)CC3)sc2c1`, for which the survival is inactive: 80%.

As to `O=C(Nc1cccc(F)c1)NC1(C(=O)NCc2ccco2)CCCCC1`, the survival was inactive: 87%.
